# Several values for one entry are separate records, joined by “and”; a condition that tells them apart may be missing. Identical values can stand only once. The inconclusive results got no clear call from the source; some entries with a clear call stand among them for comparison. For some of these results: Potencies beside an inconclusive call are fits to weak or partial responses and may not hold up. The source holds several records for some structures; these can differ, active in one and inactive in another. Activity calls are given as the source filed them. Unless noted, calls come from the whole dose curve; as a rule, active = well fitted curve in the direction sought with a large enough effect in the repeat runs; inconclusive = weak or mixed curves; inactive = no such curve, though single readings can be large; an effect the other way counts as inactive or inconclusive.
# Assays:
# [1] = A CellTox Green Cytotoxicity Assay to monitor cytotoxicity in HEK293 cells - 16 hour (AID 1224888); note: nearly all actives have a fitted effect of over 35% in size
# Method in brief: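 Each value comes from one timepoint of a single continuous run in which HEK293 cells with CellTox Green were exposed to compound for up to 40 h at 37 C, dye fluorescence rising with cell death.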
# [2] = A CellTox Green Cytotoxicity Assay to monitor cytotoxicity in HepG2 cells - 8 hour (AID 1224890); note: nearly all actives have a fitted effect of over 45% in size
# Method in brief: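 Continuous culture of HepG2 cells with a membrane-impermeant DNA dye; rising fluorescence marks dead cells. Compound exposure lasted up to 40 h at 37 C, with reads every 8 h from 0 h.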
# [3] = qHTS assay to identify small molecule phospholipidosis (PLD) inducers (AID 1259344; active = well fitted curve in the direction sought with a large enough effect; inconclusive = small, poorly fitted or top-dose-only effect, or another doubt; inactive = no such curve, though single readings can be large; an effect the other way counts as inactive or inconclusive)
# Method in brief: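 Fluorescent phospholipid staining (LipidTOX Red) measured by automated microscopy in fixed HepG2 cells after 24 h treatment; nuclei counterstained with Hoechst 33342; amiodarone as reference inducer.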
# [4] = qHTS assay to identify small molecule antagonists of the sonic hedgehog signaling (Shh) pathway (AID 1259369; calls by dose curve; note: nearly all actives have a fitted effect of over 45% in size)
# Method in brief: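 Screening used 3T3Gli1-Luc cells at 2,000 per well, compounds delivered in DMSO, and conditioned medium as agonist stimulus; plates incubated 24hr at 37 C and 5% CO2 before a 30min luciferase step.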
# [5] = target: Estrogen receptor beta (Homo sapiens) (UniProt Q92731); experiment: qHTS assay to identify small molecule antagonists of the estrogen receptor beta (ER-beta) signaling pathway (AID 1259378; active = well fitted inhibition curve with a large enough effect in the signal ratio in the repeat runs, not every such curve was filed as active; inconclusive = weak or mixed curves, or effect the other way; inactive = no such curve, though single readings can be large or run the other way; the % refers to the signal ratio; for activity, negative = inhibition: % is set by controls: 0 for no effect and ±100 for the full control effect); details: ER-beta-UAS-bla HEK293T, beta-lactamase FRET ratio, 16 h; activity, negative = inhibition: at 92.4 µM (top of the series) unless noted
# UniProt Q92731, sequence (Q92731 whole entry, looked up): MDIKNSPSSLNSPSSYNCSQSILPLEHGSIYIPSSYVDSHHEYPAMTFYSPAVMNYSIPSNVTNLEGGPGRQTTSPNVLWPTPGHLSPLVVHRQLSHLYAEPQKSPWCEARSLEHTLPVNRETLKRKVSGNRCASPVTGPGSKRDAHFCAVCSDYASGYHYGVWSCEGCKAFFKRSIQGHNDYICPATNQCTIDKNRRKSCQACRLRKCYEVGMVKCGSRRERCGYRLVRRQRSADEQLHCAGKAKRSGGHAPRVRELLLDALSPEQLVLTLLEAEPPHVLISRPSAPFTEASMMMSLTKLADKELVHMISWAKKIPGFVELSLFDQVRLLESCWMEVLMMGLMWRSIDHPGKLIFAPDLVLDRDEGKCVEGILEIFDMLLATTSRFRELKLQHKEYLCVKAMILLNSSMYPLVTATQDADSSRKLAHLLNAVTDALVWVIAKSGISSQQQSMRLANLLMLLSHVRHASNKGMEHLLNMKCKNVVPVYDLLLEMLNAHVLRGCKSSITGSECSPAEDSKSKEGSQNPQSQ
# Method in brief: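 Antagonist mode: compounds added to beta-lactamase reporter HEK293T ER-beta-UAS cells stimulated with E2 (1nM final), 16 hr at 37C. LiveBLAzer B/G FRET substrate, 2 hours room temperature, fluorescence read-out.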
# [6] = qHTS assay to identify small molecule antagonists of the sonic hedgehog signaling (Shh) pathway - cell viability counter screen (AID 1259367); note: nearly all actives have a fitted effect of over 55% in size
# Method in brief: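 Using CellTiter-Fluor, viability of Gli1-Luc reporter 3T3 cells is read by fluorescence in the wells used for the Shh luciferase assay. Treatment lasts 23 hr with conditioned medium, then reagent 1 hr at 37C.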
# [7] = qHTS RealTime-Glo MT Cell Viability Assay in HepG2 cells - 0 hour (AID 1224889); note: nearly all actives have a fitted effect of over 50% in size
# Method in brief: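 HepG2 cells were seeded at 600 cells/well together with NanoLuc luciferase and a cell-permeant prosubstrate, preincubated 5 h at 37 C/5% CO2, then pin-dosed with compounds in DMSO. Nonlytic luminescence from viable cells was read at each time point.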
# [8] = qHTS assay to identify small molecule antagonists of the estrogen receptor alpha (ER-alpha) signaling pathway using the BG1 cell line in the presence of 0.1 nM 17-beta-estradiol - cell viability counter screen (AID 1259241); note: nearly all actives have a fitted effect of over 40% in size
# Method in brief: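 Estradiol-stimulated (0.1 nM) VM7Luc4E2 cells exposed to compounds 22 hr; viability measured by fluorescence of cleaved CellTiter-Fluor substrate after 30 min.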
# [9] = target: Estrogen receptor beta (Homo sapiens) (UniProt Q92731); experiment: qHTS assay to identify small molecule agonists of the estrogen receptor beta (ER-beta) signaling pathway (AID 1259377; active = well fitted activation curve with a large enough effect in the signal ratio in the repeat runs, not every such curve was filed as active; inconclusive = weak or mixed curves, or effect the other way; the % refers to the signal ratio; for activation: % is set by controls: 0 for no effect and ±100 for the full control effect); details: ER-beta-UAS-bla HEK293T, beta-lactamase FRET ratio, 16 h; activation: at 92.4 µM (top of the series) unless noted
# Method in brief: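 Read-out: beta-lactamase FRET fluorescence. Cell line: ER-beta-UAS-bla HEK293T in 2% charcoal-stripped FBS. Exposure: 16 hr at 37C. Substrate step: 2 h at room temperature.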
# [10] = target: Estrogen receptor (Homo sapiens) (UniProt P03372); experiment: qHTS assay to identify small molecule antagonists of the estrogen receptor alpha (ER-alpha) signaling pathway using the BG1 cell line in the presence of 0.1 nM 17-beta-estradiol (AID 1259244); note: nearly all actives have a fitted effect of over 50% in size
# UniProt P03372, sequence (P03372 whole entry, looked up): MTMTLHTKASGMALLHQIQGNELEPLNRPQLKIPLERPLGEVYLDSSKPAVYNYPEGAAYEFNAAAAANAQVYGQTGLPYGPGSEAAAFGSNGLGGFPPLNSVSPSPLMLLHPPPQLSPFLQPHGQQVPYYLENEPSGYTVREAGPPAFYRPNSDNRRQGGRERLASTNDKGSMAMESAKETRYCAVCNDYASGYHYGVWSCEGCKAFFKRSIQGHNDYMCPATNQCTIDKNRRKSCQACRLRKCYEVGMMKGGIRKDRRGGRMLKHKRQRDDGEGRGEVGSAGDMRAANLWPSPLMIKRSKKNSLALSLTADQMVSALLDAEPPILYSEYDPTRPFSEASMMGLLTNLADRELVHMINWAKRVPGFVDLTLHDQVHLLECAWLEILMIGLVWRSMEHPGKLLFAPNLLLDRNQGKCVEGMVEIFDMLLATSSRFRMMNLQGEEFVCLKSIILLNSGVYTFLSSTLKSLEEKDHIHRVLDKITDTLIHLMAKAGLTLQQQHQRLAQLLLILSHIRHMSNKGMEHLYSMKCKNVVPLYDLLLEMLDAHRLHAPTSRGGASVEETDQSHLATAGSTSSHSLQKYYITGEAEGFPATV
# Method in brief: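 Quantitative high-throughput screen in VM7Luc4E2 cells: compound plus 0.1 nM E2 (final), 22 h, 37C, 5% CO2; ONE-Glo added, 30 min room temperature, luminescence measured.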
# [11] = qHTS assay to identify small molecule HDAC inhibitors - cell viability counter screen (AID 1259365); note: nearly all actives have a fitted effect of over 50% in size
# Method in brief: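 After overnight seeding at 1,500 cells per well, wild-type HCT-116 cultures took up compounds in DMSO for 2hr at 37 C. Viable cell content came from luminescence with CellTiter-Glo.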
# [12] = qHTS assay to identify small molecule agonists of the androgen receptor (AR) signaling pathway in the presence of an antagonist - cell viability counter screen (AID 1259379); note: nearly all actives have a fitted effect of over 25% in size
# Method in brief: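 In MDA-kb2 cells (human breast carcinoma, MMTV-luciferase), compounds at 15 concentrations plus 3.0uM nilutamide; 16 hr, 37C, 0% CO2; CellTiter-Fluor fluorescence read for viability.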
# [13] = target: Androgen receptor (Homo sapiens) (UniProt P10275); experiment: qHTS assay to identify small molecule antagonists of the androgen receptor (AR) signaling pathway using the MDA cell line in the presence of 0.5 nM R1881 (AID 1259243); note: nearly all actives have a fitted effect of over 50% in size
# UniProt P10275, sequence (P10275 whole entry, looked up): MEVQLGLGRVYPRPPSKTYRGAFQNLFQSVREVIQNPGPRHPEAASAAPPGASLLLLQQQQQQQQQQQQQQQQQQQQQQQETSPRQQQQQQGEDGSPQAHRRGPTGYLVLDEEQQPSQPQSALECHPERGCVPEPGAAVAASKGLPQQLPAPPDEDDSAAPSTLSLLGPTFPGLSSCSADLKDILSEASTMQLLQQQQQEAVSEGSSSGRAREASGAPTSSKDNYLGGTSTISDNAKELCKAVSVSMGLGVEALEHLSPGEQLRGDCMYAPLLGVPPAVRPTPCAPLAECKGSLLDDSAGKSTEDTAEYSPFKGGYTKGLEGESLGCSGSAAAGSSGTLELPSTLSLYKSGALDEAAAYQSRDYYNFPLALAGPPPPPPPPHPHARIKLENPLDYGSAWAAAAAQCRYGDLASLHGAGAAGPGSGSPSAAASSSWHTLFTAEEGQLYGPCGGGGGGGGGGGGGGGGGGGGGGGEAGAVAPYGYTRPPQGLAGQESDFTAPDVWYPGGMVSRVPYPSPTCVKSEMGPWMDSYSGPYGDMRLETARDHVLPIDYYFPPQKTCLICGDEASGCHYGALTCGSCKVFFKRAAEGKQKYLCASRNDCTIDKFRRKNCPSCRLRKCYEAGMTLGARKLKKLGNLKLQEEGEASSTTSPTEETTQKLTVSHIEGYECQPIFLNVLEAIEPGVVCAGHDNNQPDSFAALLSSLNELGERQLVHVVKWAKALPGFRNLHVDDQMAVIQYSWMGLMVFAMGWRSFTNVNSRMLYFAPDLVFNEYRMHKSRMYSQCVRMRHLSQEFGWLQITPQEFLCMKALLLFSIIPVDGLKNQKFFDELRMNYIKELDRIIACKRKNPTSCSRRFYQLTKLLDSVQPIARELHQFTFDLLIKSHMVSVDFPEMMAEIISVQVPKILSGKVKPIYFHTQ
# Method in brief: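 Inhibition of R1881 (0.5 nM final) induced reporter signal was measured in human MDA-kb2 cells; note the MMTV promoter also responds to GR. Exposure lasted 16 hr at 37C.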
# [14] = qHTS assay to identify small molecule agonists of the sonic hedgehog signaling (Shh) pathway - cell viability counter screen (AID 1259366); note: nearly all actives have a fitted effect of over 50% in size
# Method in brief: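 Same-well cytotoxicity read. Gli1-Luc reporter 3T3 cells; compounds 24hr, 37C/5% CO2; CellTiter-Fluor fluorescence.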
# [15] = qHTS assay to identify small molecule HDAC inhibitors (AID 1259364); note: nearly all actives have a fitted effect of over 45% in size
# Method in brief: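 Endogenous HDAC class I/II activity was measured in wild-type HCT-116 cells by HDAC-Glo luminescence after 2 h compound treatment.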
# [16] = qHTS assay to identify small molecule antagonists of the androgen receptor (AR) signaling pathway using the MDA cell line in the presence of 0.5 nM R1881 - cell viability counter screen (AID 1259242); note: nearly all actives have a fitted effect of over 45% in size
# Method in brief: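 Fluorescence from CellTiter-Fluor, which reports protease activity of live cells, was read 30 min after reagent addition to MDA-kb2 cells that had been incubated 16 hr with compound and 0.5 nM R1881.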
# Potency is the fitted concentration of half-maximal effect; tags give direction and shape of the fitted curve or compound fluorescence and quenching.
compound,measurement,setting,value
O=C(O)COc1nc(Cl)c(Cl)cc1Cl,Potency,[1],"inconclusive: 44.7 µM [activator, partial curve]"
same,Potency,[2],inconclusive: 22.4 µM [activator]
same,Potency,[3],"inconclusive: 1.26 µM [activator, single point]"
CCN(CC)CCc1c[nH]c2ccccc12,Potency,[1],inactive
same,Potency,[4],active: 50.9 µM
same,Potency,[5],inconclusive: 57.1 µM [activator]
CCOC(=O)c1ccccc1C(=O)OCC,Potency,[1],"inconclusive: 0.498 µM [activator, single point]"
same,Potency,[6],inactive
O=[N+]([O-])c1ccc(Cl)c(Cl)c1Cl,Potency,[1],"inconclusive: 24.2 µM [activator, full curve, poor fit]"
same,Potency,[5],inactive
[Cl][Hg][c]1ccccc1,Potency,[7],"inconclusive: 49 µM [cytotoxic, partial curve, poor fit]"
same,Potency,[8],active: 9.69 µM
same,Potency,[4],active: 0.0243 µM
same,Potency,[9],"inconclusive: 21.7 µM [falling, full curve]"
same,Potency,[5],"inconclusive: 3.06 µM [rising, partial curve]"
Cc1ccc2cc3c(ccc4ccccc43)c3c2c1CC3,Potency,[1],"inconclusive: 27.6 µM [activator, single point]"
same,activation,[9],inconclusive: 4.03% [at 42.5 µM]
CCCCCCCCCc1ccc(O)cc1,Potency,[1],"inconclusive: 27.8 µM [activator, partial curve]"
same,Potency,[10],"inconclusive: 77 µM [inhibitor, partial curve, poor fit]"
same,Potency,[11],inactive
same,Potency,[6],inconclusive: 68.6 µM [cytotoxic]
same,Potency,[4],active: 30.9 µM and active: 43.3 µM
same,Potency,[9],"inconclusive: 34.4 µM [rising, partial curve]"
same,Potency,[5],active: 19.5 µM and inconclusive: 30.6 µM
O=S1(=O)OC(c2cc(Br)c(O)c(Br)c2)(c2cc(Br)c(O)c(Br)c2)c2ccccc21,Potency,[7],active: 6.34 µM
same,Potency,[8],active: 14.1 µM
same,Potency,[11],"inconclusive: 25 µM [cytotoxic, partial curve]"
same,Potency,[4],active: 7.05 µM
same,Potency,[9],inconclusive: 70.5 µM
same,"activity, negative = inhibition",[5],inconclusive: 2.09%
same,Potency,[12],active: 25 µM
CCOP(=S)(OCC)SC(CCl)N1C(=O)c2ccccc2C1=O (stereo unspecified),Potency,[7],"inconclusive: 21.9 µM [cytotoxic, partial curve]"
same,Potency,[13],"inconclusive: 43.3 µM [inhibitor, partial curve]"
same,Potency,[4],"inconclusive: 43.3 µM [inhibitor, partial curve]"
Oc1ccc2ccc3cccc4ccc1c2c34,Potency,[1],"inconclusive: 61.6 µM [activator, partial curve, poor fit]"
same,Potency,[2],"inconclusive: 54.9 µM [activator, single point]"
same,Potency,[4],"inconclusive: 1.09 µM [inhibitor, full curve, poor fit]"
CCC[CH2][Sn]([CH2]CCC)([CH2]CCC)[O]C(=O)c1ccccc1,Potency,[8],active: 21.7 µM
same,Potency,[10],active: 0.486 µM
same,Potency,[11],active: 19.3 µM
same,Potency,[6],active: 0.864 µM
same,Potency,[12],active: 1.72 µM
CN(C)CCc1c[nH]c2ccc(O)cc12,Potency,[7],inactive
same,Potency,[14],"inconclusive: 67 µM [cytotoxic, single point]"
same,Potency,[5],"inconclusive: 67 µM [activator, single point]"
Cc1cc(-c2ccc(N)c(C)c2)ccc1N,Potency,[2],"inconclusive: 54.9 µM [activator, single point]"
same,Potency,[15],"inconclusive: 67.6 µM [inhibitor, partial curve, poor fit] and inconclusive: 61.8 µM [inhibitor] and inconclusive: 27.3 µM [inhibitor, partial curve]"
same,Potency,[14],"inconclusive: 27.3 µM [rising, single point]"
same,Potency,[4],"inconclusive: 12 µM [inhibitor, partial curve] and inconclusive: 19.3 µM [inhibitor, partial curve] and inconclusive: 3.44 µM [inhibitor, partial curve, poor fit]"
CC(C)COP(=O)(OCC(C)C)OCC(C)C,Potency,[16],inactive
same,Potency,[4],inactive
Cc1cccc(Cc2cnc[nH]2)c1C,Potency,[2],"inconclusive: 26.8 µM [activator, single point]"
same,Potency,[9],inactive
same,"activity, negative = inhibition",[5],inconclusive: 2.56% [at 42.5 µM]
Oc1cc(Cl)ccc1Oc1ccc(Cl)cc1Cl,Potency,[2],active: 22.4 µM and active: 16.9 µM
same,Potency,[16],active: 31.4 µM and inconclusive: 33.5 µM [cytotoxic]
same,Potency,[11],inconclusive: 55.8 µM [cytotoxic]
same,Potency,[14],active: 31.4 µM
same,Potency,[4],"active: 5.58 µM and inconclusive: 26.6 µM [inhibitor, partial curve, poor fit]"
same,Potency,[9],inconclusive: 62.6 µM and inactive
same,Potency,[12],"inconclusive: 33.5 µM [cytotoxic, single point]"

# Reference: PubChem BioAssay (Tox21)
